# Source: PubChem BioAssay AID602310 (National Center for Advancing Translational Sciences (NCATS), 2012)
# Out of some 410,000 compounds screened, about 310 (0.076%) were called active. Inconclusive results, whose numbers are uncertain, are shown with a selection of clear calls. Calls follow the shape of the dose curve; as a rule, active = well fitted curve in the direction sought with a large enough effect; inconclusive = small, poorly fitted or top-dose-only effect; inactive = flat fitted curve, though single readings scatter. Potencies of inconclusive entries are doubtful fits and often do not repeat.
# Target: DNA dC->dU-editing enzyme APOBEC-3G (Homo sapiens) (UniProt Q9HC16)
# Chain of UniProt Q9HC16 (Q9HC16 whole entry, looked up): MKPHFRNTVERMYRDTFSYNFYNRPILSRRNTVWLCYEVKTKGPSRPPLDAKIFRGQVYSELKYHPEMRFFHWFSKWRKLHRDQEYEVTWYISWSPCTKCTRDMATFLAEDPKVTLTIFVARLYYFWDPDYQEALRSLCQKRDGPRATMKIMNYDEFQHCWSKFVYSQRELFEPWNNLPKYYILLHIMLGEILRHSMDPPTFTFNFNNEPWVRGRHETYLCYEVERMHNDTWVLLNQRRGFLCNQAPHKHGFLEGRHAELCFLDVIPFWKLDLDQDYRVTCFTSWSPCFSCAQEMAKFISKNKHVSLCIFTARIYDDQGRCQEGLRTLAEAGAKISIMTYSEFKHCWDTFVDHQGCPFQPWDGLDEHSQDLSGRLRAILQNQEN
# Assay: qHTS for Inhibitors of Vif-A3G Interactions: qHTS; also: nearly all actives have a fitted effect of over 60% in size
# Details: HeLa A3G-eYFP + Vif (tagged APOBEC3G with the HIV-1 protein that degrades it), YFP fluorescence, overnight; series mostly up to 46.1 µM
# Outline: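 Read-out is eYFP fluorescence (Ex 488/Em 500-530) from Vif-expressing HeLa A3G-eYFP cells; more signal means A3G escaped Vif-mediated degradation. Cells plated overnight, compound pinned in, incubated overnight at 37 deg C.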
# Potency is read from the fitted curve at half-maximal effect; tags tell the direction and shape of the fitted curve.
row,SMILES,Potency
1,Cc1cc(C)cc(NC(=O)CCn2c(=O)c3cccn3c3ccccc32)c1,"inconclusive: 2.51 µM [inhibitor, full curve]"
2,CC1(C)Cc2nc3sc4c(SCC(=O)NCc5ccco5)ncnc4c3cc2CO1,"inconclusive: 1.78 µM [inhibitor, full curve, poor fit]"
3,COc1ccc(OC)c(NC(=O)Cn2cnc3onc(-c4ccc(Cl)cc4)c3c2=O)c1,active: 1.26 µM
4,Cc1ccc(S(=O)(=O)N/N=C/c2ccc(O)c(O)c2)cc1[N+](=O)[O-],inactive
5,CC(=O)Oc1ccc2c(c1)Oc1cc(OC(C)=O)ccc1C21OC(=O)c2ccccc21,inactive
6,COc1ccccc1C(=O)Nc1ccc2c(c1)nc(CCNC(=O)c1ccccc1)n2C,"inconclusive: 3.55 µM [inhibitor, full curve]"
7,CC(C)(C)c1ccc(OCCOCCn2c(-c3ccc(Cl)cc3)nc3ccccc3c2=O)cc1,inactive
8,O=C1C=CC(=O)N1c1ccc2c(c1)C(NC(=O)C(F)(F)F)c1ccccc1-2 (stereo not drawn),inactive
9,C[C@H](CO)N1C[C@H](C)[C@@H](CN(C)C(=O)Nc2ccc3c(c2)OCO3)Oc2c(NC(=O)Nc3ccc(C(F)(F)F)cc3)cccc2C1=O,inactive
10,O=[N+]([O-])c1ccc(C2=NN(c3ccccc3)C(c3ccco3)C2)cc1 (stereo not drawn),"inconclusive: 0.708 µM [inhibitor, full curve, poor fit]"
11,CSc1nsc(/C=C/Nc2ccc(C(=O)O)cc2)c1C#N,"inconclusive: 20 µM [inhibitor, single point]"
12,Cc1cc(C)c2nc(N3C(=O)C(O)=C(C(=O)c4ccco4)C3c3cccc(O)c3)sc2c1 (stereo not drawn),"inconclusive: 35.5 µM [inhibitor, single point]"
13,Cc1ccc(OCC(=O)N(C)CC(=O)NCc2ccco2)c(Br)c1,inactive
14,O=C1c2ccccc2C(=O)c2c(NCc3cccnc3)cccc21,inactive
15,COc1ccc(S(=O)(=O)Nc2ccccc2C)cc1,"inconclusive: 11.2 µM [inhibitor, partial curve, poor fit]"
16,CCc1cccc(C)c1NC(=O)c1cnn(-c2ccc(OC)cc2)c1C1CCN(C(=O)OC(C)(C)C)CC1,inactive
17,COCc1ccc(O)c2ncccc12,active: 10 µM
18,Cn1nnnc1Sc1ncnc2scc(-c3ccc([N+](=O)[O-])cc3)c12,"inconclusive: 7.94 µM [inhibitor, partial curve]"
19,Nc1nc(Sc2ccc([N+](=O)[O-])c3nonc23)c2[nH]cnc2n1,"inconclusive: 11.2 µM [inhibitor, partial curve, poor fit]"
20,CCc1ccccc1NC(=O)CN(c1ccc(OC)cc1)S(=O)(=O)c1c(C)n[nH]c1C,"inconclusive: 20 µM [inhibitor, single point]"
21,CCOC(=O)Cc1csc(NC(=O)c2sc3nc4ccc(CC)cc4cc3c2N)n1,inactive
22,O=C(COc1ccc(Br)cc1Cl)NCCCN1CCOCC1,inactive
23,Cc1ccccc1C1N=C2Oc3ccccc3C=C2C(=O)N1 (stereo not drawn),"inconclusive: 2.82 µM [inhibitor, full curve]"

row,SMILES,Potency
1,CCOC(=O)CSC1=C(C#N)C(c2ccc(C)s2)CC(=O)N1 (stereo not drawn),"inconclusive: 1.41 µM [inhibitor, full curve, poor fit]"
2,OCCN1CCN(c2ncnc3c2c(-c2ccccc2)cn3-c2ccc(Br)cc2)CC1,"inconclusive: 35.5 µM [inhibitor, single point]"
3,CCCCn1c(O)c(N=Nc2ccccc2O)c2ccccc21,"inconclusive: 35.5 µM [inhibitor, single point]"
4,CN(C)c1ccc(/C=C2/CCCc3c2nc2ccccc2c3C(=O)O)cc1,inactive
5,CNC(=O)/C=C/c1cc(C(=O)c2ccc(Cl)cc2Cl)cn1C,"inconclusive: 22.4 µM [inhibitor, single point]"
6,O=C(COC(=O)c1ccc2c(c1)OCCO2)NCc1ccccc1,"inconclusive: 35.5 µM [inhibitor, single point]"
7,CC(OC(=O)/C=C/c1ccccc1)C(=O)Nc1cccc(C#N)c1 (stereo not drawn),"inconclusive: 14.1 µM [inhibitor, single point]"
8,COc1ccc(C(=O)NC(=S)Nc2cccc(S(=O)(=O)N3CCOCC3)c2)cc1,"inconclusive: 10 µM [inhibitor, partial curve, poor fit]"
9,Cc1cc(NC(=O)COc2ccccc2)ccc1Cl,inactive
10,COc1cccc(C(=O)Oc2ccccc2/C=C\C(=O)c2cc3ccccc3o2)c1,"inconclusive: 22.4 µM [inhibitor, partial curve, poor fit]"
11,CCSC1=NSC2=NC(=O)/C(=C\c3coc4ccccc4c3=O)C(=N)N12,"inconclusive: 35.5 µM [inhibitor, single point]"
12,CCOc1ccccc1C1CC(=O)NC2=C1C(=O)CCC2 (stereo not drawn),"inconclusive: 7.94 µM [inhibitor, partial curve]"
13,Cc1n[nH]c(C)c1CCc1nc2c3ccccc3nc(SCC(=O)Nc3ccc(F)cc3)n2n1,"inconclusive: 17.8 µM [inhibitor, single point]"
14,NC(c1ccccc1)c1csc(Nc2cc(Oc3ccccc3)ncn2)n1 (stereo not drawn),inactive
15,COC(=O)c1ccccc1NC(=O)c1cc2c(s1)-c1ccccc1OC2,"inconclusive: 35.5 µM [inhibitor, single point]"
16,CCOC(=O)C(NC(=O)CC)(Nc1nc2c(s1)CCCC2)C(F)(F)F (stereo not drawn),inactive
17,Cc1ccc2[nH]c(=O)c(CN(CCO)Cc3nnnn3Cc3ccccc3)cc2c1,inactive
18,Cn1nnnc1Sc1ncnc2scc(-c3cccs3)c12,"inconclusive: 12.6 µM [inhibitor, partial curve, poor fit]"
19,CC(C)COc1ccc(C(=O)Nc2ccccc2[N+](=O)[O-])cc1,"inconclusive: 35.5 µM [inhibitor, single point]"
20,Cc1cccc(OCCN2CSC(=S)N(C)C2)c1,"inconclusive: 5.01 µM [inhibitor, full curve, poor fit]"
21,CC/C(=C(/CC)c1ccc(O)cc1)c1ccc(O)cc1,"inconclusive: 20 µM [inhibitor, single point]"
22,O=C(Cn1ncc(Cl)c(Cl)c1=O)c1ccc2c(c1)OCCO2,"inconclusive: 22.4 µM [inhibitor, single point]"
23,CCCCCCCCC(=O)c1c(OC)oc(C=O)cc1=O,inactive

row,SMILES,Potency
1,COc1cc2c(cc1OC)C(c1cccs1)N(C(=O)c1cccnc1)CC2 (stereo not drawn),"inconclusive: 5.62 µM [inhibitor, single point]"
2,Cc1nnc(NC(=O)CSc2nccn2-c2cccc(C)c2C)s1,"inconclusive: 2.51 µM [inhibitor, full curve, poor fit]"
3,COc1ccccc1N1N=C(c2ccc([N+](=O)[O-])cc2)CC1c1ccccc1 (stereo not drawn),active: 2.51 µM
4,COc1cc(N(C)C)c(OC)cc1/C=C1\Cc2ccccc2C1=O,"inconclusive: 35.5 µM [inhibitor, single point]"
5,O=C1C(Cl)=C(NCCCO)C(=O)c2ccccc21,inactive
6,CCc1ccc(CNC(=O)CSc2cc(=O)n(CC)c3ccccc23)cc1,"inconclusive: 10 µM [inhibitor, partial curve]"
7,C[C@H]1CN([C@@H](C)CO)C(=O)Cc2cc(NC(=O)CCC(F)(F)F)ccc2O[C@H]1CN(C)S(=O)(=O)c1ccc(F)cc1,"inconclusive: 6.31 µM [inhibitor, partial curve, poor fit]"
8,CCOC(=O)c1c(C)[nH]c(C(=O)OCC(=O)N(CC(C)C)c2c(N)n(Cc3ccccc3)c(=O)[nH]c2=O)c1C,"inconclusive: 35.5 µM [inhibitor, single point]"
9,COc1ccc(C)c(Cn2c(-c3nonc3N)nc3ccccc32)c1,"inconclusive: 1 µM [inhibitor, full curve]"
10,CC(C)(Sc1ccc(CCN(CCCCC2CCCCC2)C(=O)NC2CCCCC2)cc1)C(=O)O,inactive
11,COc1ccc(OCc2cc(C(=O)NC(C)Cc3cnccn3)no2)c(Cl)c1 (stereo not drawn),"inconclusive: 31.6 µM [inhibitor, partial curve, poor fit]"
12,COC(=O)C1OC(OC2CC[C@]3(C)C(CC[C@@]4(C)[C@@H]3CC=C3[C@@H]5CC(C)(C)CC[C@]5(C(=O)OC5OC(CO)C(O)C(O)C5O)CC[C@]34C)C2(C)C)C(O)C(O)C1O[C@H]1OCC(O)C(O)C1O (stereo partly drawn),"inconclusive: 31.6 µM [inhibitor, single point]"
13,Cc1noc(C)c1COc1cccc(C(=O)OCC(=O)N2CC(=O)Nc3ccccc32)c1,active: 2.82 µM
14,Cc1ccc(NC(C#N)c2ccccc2OCc2ccccc2)cc1 (stereo not drawn),"inconclusive: 22.4 µM [inhibitor, partial curve, poor fit]"
15,COCC(C)n1c(C)cc(C(=O)CSc2ncccn2)c1C (stereo not drawn),inactive
16,CCOC(=O)CSC1=C(C#N)C(c2ccc(C)cc2)C2=C(CCCC2=O)N1 (stereo not drawn),inactive
17,COc1ccc(-n2nc(C#N)c(Cl)cc2=O)cc1,"inconclusive: 12.6 µM [inhibitor, partial curve, poor fit]"
18,CCOC(=O)N1CCN(C(=O)c2cccc(N3C(=O)NC4CC3(C)Oc3ccc(Cl)cc34)c2)CC1 (stereo not drawn),"inconclusive: 12.6 µM [inhibitor, partial curve]"
19,S=C(NCc1ccco1)NCc1ccco1,inactive
20,COc1ccc(-c2nc3sc(CCNC(=O)Cc4ccccc4)c(C)n3n2)cc1,inactive
21,CN1CCN(c2ccc(NC(=O)c3ccc(-c4ccc(Br)cc4)o3)cc2)CC1,"inconclusive: 35.5 µM [inhibitor, single point]"
22,COc1ccc(-n2cc(-c3ccc4c(c3)OCO4)n(CC(=O)Nc3cc(Cl)ccc3C)c2=O)cc1,"inconclusive: 3.16 µM [inhibitor, single point]"
